# Reference: publication PMC12136788
# This is one part of the list.
# T1: UNK ZnF1-3 (human, UniProt Q9C0B0 31-174)
# T1 sequence: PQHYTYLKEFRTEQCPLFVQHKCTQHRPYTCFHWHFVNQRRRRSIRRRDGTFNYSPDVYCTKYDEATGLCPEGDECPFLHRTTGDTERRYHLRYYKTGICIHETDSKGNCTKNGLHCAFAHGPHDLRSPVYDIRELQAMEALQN
# B1: 54841893_54842013_1751_CDS_ENSG00000102316_ENST00000375058|human|control|control (ssRNA)
# RNA: GGGAGUUCUACAGUCCGACGAUCGGCACCAGCACUGAAGCCACCACUGGUGCUGGCACUGGCACUGGCACUGUUAUUGGUACUGGUACUGGCACCAGUGCUGGCACUGCCACUCUCUUGGGCUUUGGCUUUAGCUUCUGCUCCCAACAGAGGAUUGAGCAUCA
# B2: chrX:11616105:11616106:-_ENSMUSG00000040363_ENSMUST00000043441|mus_mus|FALSE|FALSE (ssRNA)
# RNA: GGGAGUUCUACAGUCCGACGAUCGAUGUUAUAACACGGCAAGAGGGAGCUUUCAGCAAACUCAAACUCAAACAAAUCGCUAUAGGUAUCCUCUUCCUCAUCUGGGUCUUCUGGUCCUGGGGGAUUAGCCAAAACAUCGUACCCCAACAGAGGAUUGAGCAUCA
# B3: chr18:211299:211300:+_ENSG00000101557_ENST00000383589|hu_hu|motif|central (ssRNA)
# RNA: GGGAGUUCUACAGUCCGACGAUCUCUGGAUUAUAGAAAUGAUCAACAAAUAACAUUUAUUUUCACAUCUAAGCAUAAAUACGGAAAUGAAGAUUACUGUUCACUUUCCUCUUCCAUUAUUUCAACUCUGCGAGGCCCAUAGAGCAACAGAGGAUUGAGCAUCA
# B4: chr10:70182154:70182155:-_ENSG00000138346_ENST00000358410|hu_hu|FALSE|FALSE (ssRNA)
# RNA: GGGAGUUCUACAGUCCGACGAUCUAGGUUUAUCACUGCAUUGGCCACUUUGUCUGAUCCACACUCCAGCUUGCCCUCAUAGGUCAGCUUAUUACUUAAGGACAUAAUUUUACUGUUCAUUCUGUACUGCACGGUUAACUGUACCAACAGAGGAUUGAGCAUCA
# B5: chr8:121872745:121872746:+_ENSMUSG00000031839_ENSMUST00000034300|mus_hu|FALSE|FALSE (ssRNA)
# RNA: GGGAGUUCUACAGUCCGACGAUCCUUUGUGGUGACAAUCAUAUGGAUCACCUUCCAGGUCAUCAGUAUUGGCCUCUAGGUUUAGCACUCCUGGCACUGCAUUUUUGAGUGGCCAGAGAUAAAGGUAUUAUCCCUGUCUUCUAUCAACAGAGGAUUGAGCAUCA
# B6: chr12:49580477:49580478:-_ENSG00000167552_ENST00000550767|hu_mus|FALSE|FALSE (ssRNA)
# RNA: GGGAGUUCUACAGUCCGACGAUCCACUGCCCGGGGCACAUGCUUGCCAGCUCCUGUCUCACUGAAGAAGGUGUUGAAGGAGUCAUCUCCUCCCCCAAUGGUCUUGUCACUUGGCAUCUGGCCAUCAGGCUGGAUGCCAUGUUCCAACAGAGGAUUGAGCAUCA
# B7: chr1:163117127:163117128:-_ENSG00000143248_ENST00000313961|hu_mus|hu_hu_hu_mus_False|48_98 (ssRNA)
# RNA: GGGAGUUCUACAGUCCGACGAUCUGCUACAAAGGAUGGAGGAAAUAUCACAGGGCAACUUUUGGAAGCCUGACCAGAUGACUACUUGAUUAACUCCUUAUAAAAUUCAGAGCGCACAAAGCGGGGCAGAGAAUCCUUCUCCAUCAACAGAGGAUUGAGCAUCA
# B8: chr14:34206250:34206251:-_ENSMUSG00000021936_ENSMUST00000111945|mus_mus|motif|central (ssRNA)
# RNA: GGGAGUUCUACAGUCCGACGAUCUGCAGUCCUCGCCAGUCCAAAAUCAAGAAUCUUCAAAGUGCAGUCUGAUUUGACGGCGGUAUUACUAGGCUUUAAGUCCCGAUGAAUAAUUCCAGCAGAGUGAAGGUGCUUGAUUCCACACAACAGAGGAUUGAGCAUCA
# B9: chr4:99338562:99338563:+_ENSG00000138698_ENST00000453712|hu_hu|FALSE|FALSE (ssRNA)
# RNA: GGGAGUUCUACAGUCCGACGAUCUCCAGCAAGCUGUAGCUGGUGGUUAUUUGAUGGGAUCCAAGAGAGUACCCUUUGAAAUACACUACCUUUUCCUCCUUCAAAUAACUUCUGCAUGGAUUCAUCUCCAAGAAGUAAUAAAACCAACAGAGGAUUGAGCAUCA
# B10: chr2:217001844:217001845:+_ENSG00000079246_ENST00000392132|hu_hu|hu_hu_hu_mus_False|18_58 (ssRNA)
# RNA: GGGAGUUCUACAGUCCGACGAUCACCAACUUGAGGAUUAGAUCUUUUGUCAUAAGCAUAUCGGACGAUGGCGACCAUGUCUAAGUCAUCCAAAGCAUGAACGAGAGAGGAAAGGGCAACUGCAGCUGCCUCAUCAUCCUUUGCCAACAGAGGAUUGAGCAUCA
# B11: chr3:167401952:167401953:-_ENSG00000114209_ENST00000497056|hu_mus|FALSE|FALSE (ssRNA)
# RNA: GGGAGUUCUACAGUCCGACGAUCAAAAGAAUGAUAAUAGCAAAAGUGAUGCAAAAUCUUCAUUGUGAGAUUAUGAUUAAGCUACAUUUUACAAAAAUAUGGUGUAAGAUGGCAAUAAUCCCAUUCAACAUCCUGGAUUAGGUCCAACAGAGGAUUGAGCAUCA
# B12: 153988690_153988810_1802_3pUTR_ENSMUSG00000046873_ENSMUST00000058098|mouse|control|control (ssRNA)
# RNA: GGGAGUUCUACAGUCCGACGAUCUACUCCCUCUACUACAGAGUUUUUGGGUUCUCUAGAUAUUAGGAGCUCAAAGAGGUUGGCCAAGGUGUUUUAAGGAAACACUUUACAUUUCAUAACUAGUAAGAAUUUCAAUGGCAACAGCAACAGAGGAUUGAGCAUCA
# B13: 145862194_145863126_1941_CDS_ENSG00000113649_ENST00000394421|human|control|control (ssRNA)
# RNA: GGGAGUUCUACAGUCCGACGAUCCUCCCACGUUGAAAAAGCAGACACCCCUCUCUCUAGCAGCAUGUCCUUGAACUGCUUCAUUCGAGCCUCCAGAGGGACAAUGGCCCUUUCUCGGGCAGCUUUAAUUUCAGCUUCCAUGGCCAACAGAGGAUUGAGCAUCA
# B14: chr2:44436386:44436387:+_ENSG00000138032_ENST00000378551|hu_mus|motif|central (ssRNA)
# RNA: GGGAGUUCUACAGUCCGACGAUCCUCUGAAUCUCUCUUCACGGCUUCCUCUGAGACCUUGGGGGCAUUUGAAAAGCAAACGGAUACAACACUCAUGUUAUCUCGACUUCCCUUAUGUAAACAAGUGUCCACUACCCAAUUGCACAACAGAGGAUUGAGCAUCA
# B15: 80185158_80186710_2278_CDS_ENSMUSG00000027006_ENSMUST00000028392|mouse|control|control (ssRNA)
# RNA: GGGAGUUCUACAGUCCGACGAUCUUGGCAGUCCACACUGCCUACAUUGAUCAGUCCAGUUAACGUCCGGGCCAUGCGUUUCCAUUCUGGCAUCAAGACCUGACAGGGAUGACACCAUGGAGAAUAGAAAUCGACCAUCCAGACCAACAGAGGAUUGAGCAUCA
# B16: chr7:97319096:97319097:+_ENSMUSG00000039361_ENSMUST00000049537|mus_hu|FALSE|FALSE (ssRNA)
# RNA: GGGAGUUCUACAGUCCGACGAUCAUCUUUGAACAGGAGCAUGAAGGCAGCAUUUAUUACCCCAUUUGUAAGUUCAUUGCUAUUAACAUUAAAAUCAAGAAGUGCAUCCAUCUGAUUCUGAAUAAUUGGUACAGUUUUUAGGAGCAACAGAGGAUUGAGCAUCA
# B17: chr17:61683753:61683754:+_ENSG00000136463_ENST00000258975|hu_hu|FALSE|FALSE (ssRNA)
# RNA: GGGAGUUCUACAGUCCGACGAUCAAAAGAGUGACGAGCUCCUACAGCCAUCACUCCUCCAUUCUUAUUCAGGAUAUGUCUAAUGUCUGCUUGGCACUUGUGGCUACUGUUAGAUAAUGCCUCGAUGAGCAGAGAAGAGCCACCCAACAGAGGAUUGAGCAUCA
# B18: chr4:95690885:95690886:+_ENSMUSG00000028572_ENSMUST00000156910|mus_mus|mus_mus_mus_hu_False|28_58 (ssRNA)
# RNA: GGGAGUUCUACAGUCCGACGAUCUUUAGAAAAUGUUAAAUACCAUGCUAAAAUAUUUUCAAAGGCUUAUUUUAUUUUACUAAAAGACACAGGCAAGCAGACACUACAAACAUACAAGAAAAUGAAACUCAACAAUAUAACUGUCAACAGAGGAUUGAGCAUCA
# B19: 7345498_7345716_1240_CDS_ENSMUSG00000024968_ENSMUST00000066646|mouse|control|control (ssRNA)
# RNA: GGGAGUUCUACAGUCCGACGAUCACUCACAGCUCCUCGUCCCUCUUCUAGUUCAUCACUGUCUUCUUUGUCCUUGCGGCCACCCAGCCGCCUGGCCUGCCUGUCCAUCACACUAGUUCGACUUCGGGUCUUCUUCCAAGAGUACAACAGAGGAUUGAGCAUCA
# B20: chr4:48472932:48472933:-_ENSMUSG00000028345_ENSMUST00000030030|mus_mus|FALSE|FALSE (ssRNA)
# RNA: GGGAGUUCUACAGUCCGACGAUCGGUUGAAGCAUUUGCCAGCGAGACCAUGAUAUCAGACAGUGUUAAGUUCAGUAAAAGAUGAUCUACAUUAUUGGAGAGAACUGUGCAAUGCUUGAUGCUUUUAUUUGUAUCUUUCUUCCGCAACAGAGGAUUGAGCAUCA
# B21: chr4:57314706:57314707:+_ENSG00000128050_ENST00000264221|hu_mus|hu_hu_hu_mus_True|1_108 (ssRNA)
# RNA: GGGAGUUCUACAGUCCGACGAUCCAGUAUUUCAAAUAUAGCUUGUGUGGCAUGACUCAUGAUGUCCACUUCAGUCUGCCCUAUAACAAGGCCAGCAAAACAGAAUUUUGCAGCAAUGAGUUGCUCCUCAGACCACUGUGGGUCCAACAGAGGAUUGAGCAUCA
# B22: chr16:13130331:13130332:+_ENSMUSG00000022545_ENSMUST00000023206|mus_mus|FALSE|FALSE (ssRNA)
# RNA: GGGAGUUCUACAGUCCGACGAUCCUUUCUAACAUUUACCCACACUUCUUCAGCUUUGCCAUCCUUCUCAAAAGUUUUCCUAUAAAGUCGCAGCAGGAAGGUUUCUGCUCCGGCGGACAGGUAGUCUCUCAGCUGGCAGCACGUCAACAGAGGAUUGAGCAUCA
# Target: T1, UNK ZnF1-3
# Experiment: nsRBNS (natural sequence RNA bind-n-seq); RBNS binding buffer (assumed for nsRBNS): 25 mM Tris pH 7.5, 150 mM KCl, 3 mM MgCl2, 0.01% Triton X-100, 500 ug/ml BSA, 20 U/ml SUPERase-In, 4 C; UNK is unkempt and MSI1 is Musashi-1; names of the RNAs are library labels; protein concentration not given here; high values mean tight binding
row,Binder,binding signal
1,B1,0.504 enrichment R
2,B2,1.3 enrichment R
3,B3,1.05 enrichment R
4,B4,0.728 enrichment R
5,B5,0.481 enrichment R
6,B6,0.673 enrichment R
7,B7,2.19 enrichment R
8,B8,1.04 enrichment R
9,B9,0.885 enrichment R
10,B10,1.7 enrichment R
11,B11,0.761 enrichment R
12,B12,1.4 enrichment R
13,B13,1.38 enrichment R
14,B14,0.898 enrichment R
15,B15,0.328 enrichment R
16,B16,1.42 enrichment R
17,B17,0.839 enrichment R
18,B18,2.22 enrichment R
19,B19,0.733 enrichment R
20,B20,1.09 enrichment R
21,B21,0.772 enrichment R
22,B22,0.782 enrichment R
